± gives the standard deviation of the averaged measurements. Whole data set: some 33,000 sequences, median “E-score (dimensionless, -0.5 to 0.5)” near -0.049, cut for the highest 2% near 0.37. Some of the results follow.
test system: T1, PmTbr T-box DNA-binding domain (GST fusion); test: PBM E-score of 8-mer (E-score (dimensionless, -0.5 to 0.5)); Tbr is Tbrain of the sea star Patiria miniata (Pm) or the sea urchin Strongylocentrotus purpuratus (Sp); higher = stronger binding preference; most listed sequences are background and not binding sites; details: the construct has about 5 more residues each side
T1 sequence: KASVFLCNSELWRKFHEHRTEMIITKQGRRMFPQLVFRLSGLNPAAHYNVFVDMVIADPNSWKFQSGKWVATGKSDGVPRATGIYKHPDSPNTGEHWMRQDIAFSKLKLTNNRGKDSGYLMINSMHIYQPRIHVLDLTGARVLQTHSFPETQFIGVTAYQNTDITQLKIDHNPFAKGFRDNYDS
Description: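 Universal protein-binding microarray (Agilent AMADID 016060, 60-bp probes with a 35-bp variable region) incubated with 200 nM GST-fused Patiria miniata Tbr T-box DNA-binding domain (residues 272-466) in PBS pH 7.5. Scored for every ungapped 8-mer (given with its reverse complement) by the Universal PBM Analysis Suite as E-score (modified Wilcoxon-Mann-Whitney enrichment, range -0.5 to 0.5; >0.45 counts as bound) and Z-score of median probe intensity. Two replicate arrays (datasets 1 and 2).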
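Further: 200 nM protein in PBS on universal arrays averaged over duplicate arrays.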

Sequence	PBM E-score of 8-mer
CACGGTCA	-0.128 ± 0.15
AGTATGTC	0.0609 ± 0.02
GCCCAAAC	-0.326 ± 0.053
GAAATATC	0.116 ± 0.062
AAAGAGAA	-0.164 ± 0.0075
CCCTTTCC	-0.23 ± 0.041
ACCAACAA	-0.0452 ± 0.0025
AGGTAACT	-0.202 ± 0.042
CCTCAAGA	-0.0898 ± 0.013
ATGGCCAG	-0.288 ± 0.012
AGCGAAAA	0.0819 ± 0.093
TCAACGAA	-0.102 ± 0.044
ACTTTCCC	0.00552 ± 0.00085
CTTGTTTA	-0.0366 ± 0.073
AACGCGGT	0.0374 ± 0.08
CAATCTTA	0.00699 ± 0.1
GTATGCCA	-0.0108 ± 0.032
CCGTGATC	0.0258 ± 0.017
ACCTTGCA	0.0593 ± 0.027
ACCAGCGG	0.106 ± 0.042
CAGTCTCG	-0.0851 ± 0.016
ATACAGGG	-0.305 ± 0.028
CTCTACTA	0.0689 ± 0.027
ATACGCGA	0.0724 ± 0.001
AATACGAT	-0.0916 ± 0.037

Sequence	PBM E-score of 8-mer
CCGATGCA	-0.171 ± 0.039
GTTGGCGA	0.248 ± 0.026
CCGGATCA	0.0169 ± 0.078
CCTGTGCC	-0.0204 ± 0.033
GATAGCGA	0.0854 ± 0.036
ATACCGCA	0.0124 ± 0.0047
CTGGTCCA	-0.23 ± 0.039
CCAGCTAG	-0.145 ± 0.052
AGAAGAAG	-0.307 ± 0.05
CTCAGGCA	-0.161 ± 0.016
ATACAGAG	-0.0843 ± 0.021
GCCGCAAC	-0.0496 ± 0.04
ATCAACGC	0.159 ± 0.049
GGTGCCCA	-0.139 ± 0.069
AGTACGTG	0.168 ± 0.028
AAAATCCC	-0.174 ± 0.051
GCTGACAA	0.2795 ± 0.00061
CTTGCAAC	0.163 ± 0.024
AAGCCTGA	-0.0788 ± 0.067
GTACTAGA	-0.104 ± 0.038
ACTTACAG	0.157 ± 0.035
CGCGGTCA	-0.0665 ± 0.042
ACATCGGG	-0.0207 ± 0.058
GAACCTAC	-0.179 ± 0.00047
ACTTAGTA	-0.0358 ± 0.067

Sequence	PBM E-score of 8-mer
ACTCCGTC	-0.101 ± 0.032
GCCCGAAC	-0.26 ± 0.057
CTCTCGGC	0.0669 ± 0.054
AAGTGGGA	0.223 ± 0.0075
AGCTAGCC	-0.147 ± 0.0053
CCTCAACC	-0.15 ± 0.039
GGAAGGAA	-0.287 ± 0.02
AGTCCCTC	-0.059 ± 0.06
AAGGTATG	0.0327 ± 0.0067
ATTCGAGA	-0.0312 ± 0.0064
ACTTGTGA	0.411 ± 0.0095
ACCCACCC	0.132 ± 0.053
GGTAGTAC	-0.34 ± 0.034
CTCCCGCA	-0.203 ± 0.091
GACATCAA	-0.131 ± 0.0056
AACACAAG	0.096 ± 0.016
AGAAAGCA	0.0161 ± 0.03
TGAAAACA	0.123 ± 0.074
ATCTATAC	-0.169 ± 0.026
CCACTCCC	-0.0399 ± 0.027
CGGCTTGC	-0.0848 ± 0.039
AACACAGC	0.0601 ± 0.048
GGTTGGGA	-0.312 ± 0.02
CAGGCGGC	-0.00931 ± 0.083
CATATCGA	-0.161 ± 0.01

Sequence	PBM E-score of 8-mer
CTCAACAC	0.321 ± 0.029
ACACTTAT	0.387 ± 0.0076
ACCGTACT	-0.134 ± 0.067
AATCCTCT	-0.1114 ± 0.00041
CACTTCAG	0.255 ± 0.025
ACCGTTGA	-0.184 ± 0.0077
CTGACCCC	-0.231 ± 0.035
CACTACGC	0.157 ± 0.0054
ATCCAGGA	-0.107 ± 0.011
GAGCAAAA	-0.0487 ± 0.12
CAACTGCG	0.0774 ± 0.046
CTCCCTCC	0.0764 ± 0.04
TGACTACA	-0.17 ± 0.012
AACCATAC	-0.179 ± 0.016
ACATTCGG	-0.221 ± 0.051
GAACAGCC	0.046 ± 0.004
CAGGTAGG	0.0824 ± 0.00085
CACTTGGA	0.234 ± 0.018
AGAGTCAC	-0.00213 ± 0.085
ACTAGTAA	-0.0993 ± 0.032
AGGCCCTA	-0.271 ± 0.083
AGATACTA	-0.187 ± 0.036
GACTGAAA	0.0901 ± 0.099
AGCCATCA	-0.169 ± 0.038
CGAAAACC	-0.203 ± 0.072

Sequence	PBM E-score of 8-mer
AATATTAT	-0.12 ± 0.075
CGTTAACC	0.0384 ± 0.0052
TCTAGGAA	-0.236 ± 0.084
GAGAAAGA	-0.0831 ± 0.13
GGTTGGCA	0.184 ± 0.01
CTAAGTCA	0.0515 ± 0.068
CATTCGTC	-0.0104 ± 0.058
AATTCGCC	0.115 ± 0.027
ATAGCTGC	0.00428 ± 0.015
GCGGGCAA	-0.186 ± 0.051
CCCAACTA	-0.12 ± 0.01
CCCGAGAG	-0.113 ± 0.021
CTACGTGA	0.0284 ± 0.073
ACTACGTA	-0.156 ± 0.012
ACACCATA	0.284 ± 0.033
CCCATCTA	-0.177 ± 0.038
ATGATCCA	-0.0567 ± 0.047
GCGTTTGA	-0.115 ± 0.061
AATATTGT	0.123 ± 0.094
AGCATATC	0.0194 ± 0.02
TAACCATA	-0.145 ± 0.046
AATCTAAC	-0.0186 ± 0.011
CTGCCATA	0.0983 ± 0.012
AGCGCTAC	0.152 ± 0.012
AAAGAGGG	-0.00301 ± 0.049

Sequence	PBM E-score of 8-mer
GTAGATGA	-0.132 ± 0.011
TGGATCCA	-0.12 ± 0.022
GGCGAAAC	0.0341 ± 0.0066
AATCTTAG	-0.0317 ± 0.098
AGTGTTAT	0.397 ± 0.016
GATCCCAC	0.0899 ± 0.054
ATTTGCGC	0.132 ± 0.035
AGTTTAAT	-0.0349 ± 0.05
AATCTAAG	-0.214 ± 0.028
TCTTGGCA	0.0497 ± 0.1
AAACCGCT	-0.0513 ± 0.0093
CCTGAGCC	-0.117 ± 0.016
ACATGGTC	-0.161 ± 0.036
CCAACATC	-0.0505 ± 0.093
ACACGTCT	0.355 ± 0.021
AAACGAGC	-0.229 ± 0.005
CTACACCA	0.14 ± 0.0059
ATTCACCA	0.0566 ± 0.052
CTTGTACA	-0.11 ± 0.0094
CGTTCTGC	-0.109 ± 0.016
ACGTGTGG	0.362 ± 0.017
CTCGGCAC	0.2625 ± 0.00037
ACCAAGCC	-0.217 ± 0.008
AGTTGTGG	0.122 ± 0.039
AAGGCTAC	-0.14 ± 0.014

Sequence	PBM E-score of 8-mer
CCCAGAAA	-0.167 ± 0.029
TAGCCGGA	-0.158 ± 0.012
GGGCAAAC	-0.202 ± 0.096
AACGACAG	-0.0178 ± 0.014
GACGCCAA	0.213 ± 0.01
GAAGAGTA	-0.112 ± 0.019
CCAAGCTA	-0.114 ± 0.043
AAATAGAG	-0.0742 ± 0.036
CGGGAACA	0.0181 ± 0.014
CCGATTTA	-0.144 ± 0.052
ACCTAAGA	-0.0522 ± 0.064
AGGAATAA	-0.235 ± 0.0072
ACAAATCT	0.0395 ± 0.0062
ATACCATG	-0.0778 ± 0.03
ACCCTGCC	0.0656 ± 0.029
GGCTCGCA	0.136 ± 0.053
GCACAATA	-0.0261 ± 0.048
ATTGGAAG	-0.316 ± 0.051
GATGCGAA	0.186 ± 0.038
ATGTATCC	-0.237 ± 0.033
TGTCGAAA	0.226 ± 0.043
CGACTTAA	0.106 ± 0.017

Reference: the supplement of paper PMC4166925
